Data on 42 molecules can be found in PMC4336329 (PLoS ONE, 2015).

Screen size: about 310,000 compounds; about 2,200 (0.71%) showed an effect of 50% or more. The effect is printed as a negative number. The list shows a part of the results.

This assay deals with human ether-à-go-go-related gene (hERG) potassium channel (human, UniProt Q12809). In words: primary screen, population patch clamp on CHO cells stably expressing hERG.
human ether-à-go-go-related gene (hERG) potassium channel, sequence (Q12809 whole entry, looked up): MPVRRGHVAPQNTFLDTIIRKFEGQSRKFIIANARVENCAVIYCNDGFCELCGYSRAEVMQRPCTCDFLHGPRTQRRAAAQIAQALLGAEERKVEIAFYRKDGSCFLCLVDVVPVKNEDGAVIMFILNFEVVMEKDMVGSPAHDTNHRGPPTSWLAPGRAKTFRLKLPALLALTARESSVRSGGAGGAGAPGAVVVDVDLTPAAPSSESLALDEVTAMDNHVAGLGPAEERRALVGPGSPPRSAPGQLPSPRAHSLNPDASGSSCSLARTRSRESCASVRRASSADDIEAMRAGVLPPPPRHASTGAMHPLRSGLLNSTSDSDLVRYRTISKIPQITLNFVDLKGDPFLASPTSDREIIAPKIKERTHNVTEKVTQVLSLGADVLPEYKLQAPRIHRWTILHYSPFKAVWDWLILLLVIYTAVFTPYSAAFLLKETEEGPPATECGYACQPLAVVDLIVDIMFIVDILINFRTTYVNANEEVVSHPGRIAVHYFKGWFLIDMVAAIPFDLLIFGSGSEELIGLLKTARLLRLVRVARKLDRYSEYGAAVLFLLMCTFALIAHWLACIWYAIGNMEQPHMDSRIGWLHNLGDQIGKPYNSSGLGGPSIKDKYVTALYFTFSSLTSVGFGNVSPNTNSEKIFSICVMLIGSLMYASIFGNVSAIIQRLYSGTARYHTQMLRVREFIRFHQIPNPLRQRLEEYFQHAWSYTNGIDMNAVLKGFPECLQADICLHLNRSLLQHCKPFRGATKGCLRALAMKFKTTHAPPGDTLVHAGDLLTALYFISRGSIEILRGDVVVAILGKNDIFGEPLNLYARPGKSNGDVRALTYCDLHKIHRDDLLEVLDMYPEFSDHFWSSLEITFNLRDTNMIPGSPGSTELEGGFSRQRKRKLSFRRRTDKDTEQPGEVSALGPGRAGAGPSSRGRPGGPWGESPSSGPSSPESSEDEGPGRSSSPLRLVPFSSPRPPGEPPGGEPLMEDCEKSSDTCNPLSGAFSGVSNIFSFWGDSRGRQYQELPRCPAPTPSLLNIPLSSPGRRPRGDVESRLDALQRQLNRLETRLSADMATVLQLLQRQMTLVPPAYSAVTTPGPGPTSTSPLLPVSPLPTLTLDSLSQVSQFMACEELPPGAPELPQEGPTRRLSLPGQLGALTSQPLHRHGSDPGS
As for `O=C(CCNc1ccc(Cl)cc1)c1cccs1`, the “hERG current change (%, negative = inhibition) at 1uM” value worked out at 8.08%.

As for `O=C(/C=C/c1cccc(Cl)c1)NCc1ccccc1`, the “hERG current change (%, negative = inhibition) at 1uM” value stood at 11.5%. For `Cc1cc(C)cc(N(CC(=O)Nc2cc(C)ccc2C)S(=O)(=O)c2c(C)[nH]c(=O)[nH]c2=O)c1`, the “hERG current change (%, negative = inhibition) at 1uM” value is reported as 4.41%. With `CN(C(=O)COC(=O)c1cc(-c2ccc(Cl)s2)nc2ccccc12)C1CCS(=O)(=O)C1` (stereo not drawn), the “hERG current change (%, negative = inhibition) at 1uM” value is recorded as 6.76%. In the case of `CCNCC(O)COCC(O)CNCC` (stereo not drawn), the “hERG current change (%, negative = inhibition) at 1uM” value is listed as 14.7%.

Regarding `C/C(=N\N=C(/N)SC1CC(=O)N(c2ccccc2)C1=O)c1cccs1` (stereo not drawn), the “hERG current change (%, negative = inhibition) at 1uM” value worked out at 9.77%. `Cc1ccc2c(c1)C(c1ccc(F)cc1)N(C(=O)c1ccccc1Br)CC(=O)N2` (stereo not drawn): the “hERG current change (%, negative = inhibition) at 1uM” value is 9.64%. In the case of `CCN(CC)CCNCC(=O)N1c2ccccc2CCc2ccc(NC(=O)OC)cc21.Cl`, the “hERG current change (%, negative = inhibition) at 1uM” value is on record as 10.7%. As for `Cc1cccc(OCc2nnc(SCC(=O)N3CCCC3)n2C)c1`, the “hERG current change (%, negative = inhibition) at 1uM” value is recorded as -5.15%. With `CCOC(=O)/C=C/C(=O)Nc1ccc(S(=O)(=O)N2CCCCCC2)cc1`, the “hERG current change (%, negative = inhibition) at 1uM” value turned out to be 4.35%. Regarding `CCCCCn1c(SCCOCC)nc2c1c(=O)[nH]c(=O)n2C`, the “hERG current change (%, negative = inhibition) at 1uM” value was -7.34%.

As to `OC(COc1ccc(OCc2ccccc2)cc1)CN1CCCCC1` (stereo not drawn), the “hERG current change (%, negative = inhibition) at 1uM” value is -5.55%.

Regarding `CN(CC(=O)Nc1cccc2ccccc12)C(=O)/C=C/c1cccs1`, the “hERG current change (%, negative = inhibition) at 1uM” value is listed as -0.449%. Regarding `CCS(=O)(=O)c1ccc2c(c1)N(S(C)(=O)=O)CC(C(=O)NC1CC1)O2` (stereo not drawn), the “hERG current change (%, negative = inhibition) at 1uM” value was 16%. On to `Cc1ccc(C2(C)NC(=O)N(CC(=O)NC(C)c3ccccc3)C2=O)cc1` (stereo not drawn), for which the “hERG current change (%, negative = inhibition) at 1uM” value worked out at 11.3%. To `Cc1cccc(Sc2nc(-c3ccccc3)ncc2C(=O)O)c1` belongs 10.3%; to `O=S(=O)(c1ccc2c(c1)CCCN2)N1CCCC1`, 4.39%. With `CCCN(C(=O)Cn1nc(C)c([N+](=O)[O-])c1C)c1c(N)n(Cc2ccccc2)c(=O)[nH]c1=O`, the “hERG current change (%, negative = inhibition) at 1uM” value is 13.1%. Then `O=C(COC(=O)COc1ccc(Cl)cc1)NCCNC(=O)COC(=O)COc1ccc(Cl)cc1`, with 3.11%; and `O=C(O)COC(=O)Cc1ccccc1Nc1c(Cl)cccc1Cl`, with 17.3%; and `O=S(=O)(c1ccc(NC(=S)Nc2ccccc2)cc1)N1CCOCC1`, with 7.12%. Regarding `CCCCOc1cccc(C2/C(=C(/O)c3ccc4c(c3)CC(C)O4)C(=O)C(=O)N2CCN2CCOCC2)c1` (stereo not drawn), the “hERG current change (%, negative = inhibition) at 1uM” value is 13.8%. `Cc1cc(=O)[nH]c(N/N=C/c2ccc3c(c2)OCCO3)n1`: the “hERG current change (%, negative = inhibition) at 1uM” value is listed as 8.77%. As to `Cc1cc(-n2c(C)cc(C(=O)COC(=O)CN=C3NS(=O)(=O)c4ccccc43)c2C)no1`, the “hERG current change (%, negative = inhibition) at 1uM” value was 11.6%. As to `O=C(CCc1c[nH]c2ccccc12)OCC(=O)N1CCN(S(=O)(=O)c2ccccc2)CC1`, the “hERG current change (%, negative = inhibition) at 1uM” value is reported as -14.2%. For `CCCCCc1nc2ccccc2c(=O)n1-c1ccccc1[N+](=O)[O-]`, the “hERG current change (%, negative = inhibition) at 1uM” value is given as 14.1%. `CC[C@H](C)C1NC(=O)[C@H](CC(=O)O)NC(=O)c2cc([N+](=O)[O-])cc(I)c2NCCC(C(N)=O)NC1=O` (stereo partly drawn): the “hERG current change (%, negative = inhibition) at 1uM” value worked out at 26.2%. For the molecule `CN1CCN(c2ccc(-c3cccc(NC(=O)COc4ccccc4)c3)nn2)CC1`, the “hERG current change (%, negative = inhibition) at 1uM” value is -14.2%. Take `Cc1cc(NS(=O)(=O)c2ccc(NC(=O)c3cnc4sccn4c3=O)cc2)nc(C)n1`: the “hERG current change (%, negative = inhibition) at 1uM” value is 13.9%. Then `Cc1cccc(OCCCC(=O)Nc2ccc(Cl)c(S(=O)(=O)N3CCOCC3)c2)c1`, with 4.32%. Then `O=C(Cc1ccccn1)c1ccc(Cl)cc1`, with 12.9%; and `N#C/C(=C\c1c(N2CCC(C(N)=O)CC2)nc2ccccn2c1=O)S(=O)(=O)c1ccc(Cl)cc1`, with 3.91%; and `O=C(COC(=O)CCCSc1nc2ccccc2[nH]1)Nc1ccc(Oc2ccccc2)cc1`, with 14.2%. To `CCOc1cc(NS(=O)(=O)c2ccc(OC)cc2)c(OCC)cc1NC(C)=O` belongs 11%. On to `Cc1cc(C)cc(OCC(=O)N2CCc3ccccc3C2)c1`, for which the “hERG current change (%, negative = inhibition) at 1uM” value stood at 7.93%. As to `CCCOc1ccc(/C(O)=C2/C(=O)C(=O)N(CCN(C)C)C2c2ccncc2)cc1` (stereo not drawn), the “hERG current change (%, negative = inhibition) at 1uM” value came out at 16.9%. As to `COc1ccc(C(C)=O)cc1COC(=O)c1cc(=O)c2ccccc2o1`, the “hERG current change (%, negative = inhibition) at 1uM” value amounted to 4.54%. `CCN(CC)CCNC(=O)C(Oc1ccccc1)Oc1ccccc1`: the “hERG current change (%, negative = inhibition) at 1uM” value was -46.9%. Take `CN1C(=O)/C(=C/c2ccc3c(c2)OCO3)N=C1c1ccccc1`: the “hERG current change (%, negative = inhibition) at 1uM” value is 15.7%. Turning to `COc1ccc(CNC(=O)C(c2ccc(C)cc2)N(Cc2cccs2)C(=O)c2ccc3c(c2)OCCO3)cc1` (stereo not drawn), the “hERG current change (%, negative = inhibition) at 1uM” value is 16.3%. Consider `CCN1CCCC1CNC(=O)c1cc2ccc(OC)cc2[nH]1` (stereo not drawn), for which the “hERG current change (%, negative = inhibition) at 1uM” value amounted to 5.34%.

On to `COc1ccc(NC(=O)c2c(N)no[n+]2[O-])cc1`, for which the “hERG current change (%, negative = inhibition) at 1uM” value is 1.89%.
